# Laboratory results reported in the supplement of paper PMC4604168 (melanoma cell lines).
# This is one part of the list. Many values rest on one well or one pass, so single values are uncertain.
# System: WM115
# Assay: cell count relative to DMSO control; melanoma cells; higher = more viable cells
# Conditions: library dose: standard library concentration; 72 h
# 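Note: cells treated in 1,536-well plates, then fixed and DAPI-stained, with nuclei counted from automated high-throughput microscope images.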
row,SMILES,cell count [%]
1,"NC(=O)c1ccc(N(C(N)=O)c2c(F)cccc2F)nc1-c1ccc(F)cc1F + O=c1cc(-c2cccc3c2Sc2ccccc2S3)oc(N2CCOCC2)c1 [KU55933] (first compound 2 µM, partner dose 5 µM)",96.3
2,"CN(NC(=O)CC(=O)NN(C)C(=S)c1ccccc1)C(=S)c1ccccc1 + CCc1ccc(CCOc2ccc(CC3SC(=O)NC3=O)cc2)nc1 [pioglitazone] (first compound 0.03 µM, partner dose 10 µM)",22.3
3,"NC(=O)c1ccc(N(C(N)=O)c2c(F)cccc2F)nc1-c1ccc(F)cc1F + c1cc(-c2cnn3cc(-c4ccc(OCCN5CCCCC5)cc4)cnc23)ccn1 [Dorsomorphin] (first compound 2 µM, partner dose 2 µM)",98.4
4,"Cc1ccc(NC(=O)c2cccc(N(C)C)c2)cc1NC(=O)c1ccc(O)cc1 + COc1ccc(-c2ccc3c(N4CCOCC4)nc(N4C[C@@H](C)O[C@@H](C)C4)nc3n2)cc1CO [KU0063794] (first compound 10 µM, partner dose 0.1 µM)",84.6
5,"NC(=O)c1ccc(N(C(N)=O)c2c(F)cccc2F)nc1-c1ccc(F)cc1F + CCN(CC)CCCCNc1ncc2cc(-c3cc(OC)cc(OC)c3)c(NC(=O)NC(C)(C)C)nc2n1 [PD173074] (first compound 2 µM, partner dose 0.5 µM)",121
6,"CCCCCCCCc1ccc(CCC(N)(CO)CO)cc1 [fingolimod] + Oc1nc(-c2ccc(C(F)(F)F)cc2)nc2c1CSCC2 [XAV939] (first compound 10 µM, partner dose 10 µM)",67.2
